Test results reported in paper PMC7819943, “Rice protein-binding microarrays: a tool to detect cis-acting elements near promoter regions in rice”.
Some of the results follow.

These sequences were tested against T1, OsWOX13 (Oryza sativa, UniProt Q5QMM3 1-267) (assay: protein-binding microarray (RPBM); PBS, 2% BSA, 51.3 ng/ul salmon testes DNA, 50 uM zinc acetate, 200 nM TF, 25 C, 1 h; high values mean tight binding). Conditions: protein: recombinant; tags: N-terminal polyhistidine and DsRed monomer fusion (pET32a); label: CyDye5-dUTP incorporated in the synthesized complementary strand; 3' TTTTT single-stranded linker to array surface; dsDNA, one strand shown.
T1 sequence: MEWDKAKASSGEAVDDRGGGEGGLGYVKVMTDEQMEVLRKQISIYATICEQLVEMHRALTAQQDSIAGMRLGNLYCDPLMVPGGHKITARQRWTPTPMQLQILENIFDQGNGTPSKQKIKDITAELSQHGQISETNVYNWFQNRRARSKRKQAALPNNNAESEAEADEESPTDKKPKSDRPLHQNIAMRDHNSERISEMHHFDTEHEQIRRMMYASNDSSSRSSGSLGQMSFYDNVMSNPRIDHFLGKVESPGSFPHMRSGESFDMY
Method in brief: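 The binding signal for each feature is its fluorescence intensity in arbitrary units. An Axon 4000B scanner was used to read a custom Agilent array that had been made double-stranded with Cy5-dUTP primer extension, blocked with 2% BSA, incubated at 25 °C for 1 h with 200 nM protein in PBS, 2% BSA, salmon testes DNA and 50 µM zinc acetate, and washed. The protein was an N-terminal polyhistidine–DsRed transcription factor fusion from E. coli BL21-CodonPlus, purified on Ni–NTA.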

In order of rising binding signal:
1. TTTTCTGTCTCTTTATCTCTTTAAAATATGTTTATAGCTGCGGAGTCACCTAGTGCAG  3190 fluorescence intensity (a.u.)
2. ATGATCTTGCCGTTAATCAATACATGCATTGGCTTGCAGCCGGAGTCACCTAGTGCAG  3380 fluorescence intensity (a.u.)
3. CTCTCAATTCCGGATAGACATGTTCCACTGCAAAGAAAGCCGGAGTCACCTAGTGCAG  3400 fluorescence intensity (a.u.)
4. AGAAACCTCGTTAGTGCATAATTAATTAAGTATTAGTTATCGGAGTCACCTAGTGCAG  3450 fluorescence intensity (a.u.)
5. ATTATGTAATCAAAATTATGCCTTATTGCCTTTGAAAATTCGGAGTCACCTAGTGCAG  3680 fluorescence intensity (a.u.)
6. TCTGCTGATTTTGCTGTTGCCTCTGCTGATTTCAATAATGCGGAGTCACCTAGTGCAG  3770 fluorescence intensity (a.u.)
7. GAGTTGTTTATTTTGCAATAATTAAGATCATCGATCAGATCGGAGTCACCTAGTGCAG  3880 fluorescence intensity (a.u.)
8. ACTCCTTCACATAAATAAACAGAAAGAATGATAGGGCAAACGGAGTCACCTAGTGCAG  4250 fluorescence intensity (a.u.)
9. TGTAATTTGTTTTGTTAGTAGACTACGCTTAATACTTCAACGGAGTCACCTAGTGCAG  4700 fluorescence intensity (a.u.)
10. GCTAAATTTCCTCTAAAATTCACATGCAATGTGCCATTCCCGGAGTCACCTAGTGCAG  4700 fluorescence intensity (a.u.)
11. CTTGAATGAATGTATGTCAAAGGAACCCATCACCGTTTCTCGGAGTCACCTAGTGCAG  5020 fluorescence intensity (a.u.)
12. ATCTCTCTCTCTCTCTCTCTCTCTCTCTCTCTCTCTCTCTCGGAGTCACCTAGTGCAG  5190 fluorescence intensity (a.u.)
13. ATAAATAAACTTATTTTGAGATAATGGTGTAATAGTGTAGCGGAGTCACCTAGTGCAG  5300 fluorescence intensity (a.u.)
14. AACGGCCCAGATTGATCCCCTTAACTACCGAAATGCCAGACGGAGTCACCTAGTGCAG  5760 fluorescence intensity (a.u.)
15. TGGATTACTCATAATGATTATGTCATATAGGTGATGTTGCCGGAGTCACCTAGTGCAG  6150 fluorescence intensity (a.u.)
16. TCAGCAAATTACACGAAATTTAGATGTTTTGTAGTAAAATCGGAGTCACCTAGTGCAG  6410 fluorescence intensity (a.u.)
17. GATGATTTTACTAGCTAGTTAGATCGAGTTACAAACATATCGGAGTCACCTAGTGCAG  6740 fluorescence intensity (a.u.)
18. CATTAACCTTTTAATGACTAATTATACTATGCCACCCCTCCGGAGTCACCTAGTGCAG  9110 fluorescence intensity (a.u.)
19. GGTTGAAATTATTTATTGTTGGTAAATTAAGTAAAGTCGCCGGAGTCACCTAGTGCAG  9510 fluorescence intensity (a.u.)
20. ACGAGAAAATCTAATCAACCAAGCTTAGATTAGATCATTACGGAGTCACCTAGTGCAG  9510 fluorescence intensity (a.u.)
21. AAAATTGGAAAGTTTGGTTGAAATTGAAACGATGTGACGGCGGAGTCACCTAGTGCAG  10500 fluorescence intensity (a.u.)
22. TTAGATAGATATAAACACATCATTTACCCATTCTAATTCTCGGAGTCACCTAGTGCAG  11000 fluorescence intensity (a.u.)
23. TAAATTATAGTGCAATCATGATGTAATTATATTGTAACTTCGGAGTCACCTAGTGCAG  15400 fluorescence intensity (a.u.)
24. GTTTTATAATTAGTGTATGTTTAATACTCTAAATTAGTGTCGGAGTCACCTAGTGCAG  17800 fluorescence intensity (a.u.)
25. ATTAAAATTTAAAATTTGACATCAGCTTATAAATATAGGGCGGAGTCACCTAGTGCAG  18200 fluorescence intensity (a.u.)
26. GTGTTAATTTGCCGCTTGGTTTGCGTGAGTAGTTAAGCATCGGAGTCACCTAGTGCAG  19900 fluorescence intensity (a.u.)
27. GAAATACCAATTTAGTTAATAGATTGTTTCTCCAATACCTCGGAGTCACCTAGTGCAG  21800 fluorescence intensity (a.u.)
28. TTAATGATTATACAAGATCTAAAATCCTTTTATGTCCTTGCGGAGTCACCTAGTGCAG  22200 fluorescence intensity (a.u.)
29. ATTAAATAATTTCTTTGATAAAATTGTTTTGCAGGCATATCGGAGTCACCTAGTGCAG  22300 fluorescence intensity (a.u.)
30. TGACCATTGCTAGATTGACACTCTGATCTGATCACCGTTGCGGAGTCACCTAGTGCAG  22400 fluorescence intensity (a.u.)
31. TCGTTAATTTGCAACCATACCTTAGCTCCACACTCCACGACGGAGTCACCTAGTGCAG  23200 fluorescence intensity (a.u.)
32. TTAATTATTGTGAGTAATAGATTAACGACACACGTGTTGACGGAGTCACCTAGTGCAG  23300 fluorescence intensity (a.u.)
33. CTAATTAATATATATATATTGGATATTTCACGTTTTCACGCGGAGTCACCTAGTGCAG  23700 fluorescence intensity (a.u.)
34. TCAAAATTAGCAATTAAGTTCCGAAAATTCCAACAACAAACGGAGTCACCTAGTGCAG  26100 fluorescence intensity (a.u.)
35. CCATGCCAATCACCAACTGATTCTTATCTATTTTATCAAGCGGAGTCACCTAGTGCAG  26800 fluorescence intensity (a.u.)
36. TTGATTGGTCACCATCAGCATAGCTACATGTAAGGAGCTACGGAGTCACCTAGTGCAG  29200 fluorescence intensity (a.u.)
37. GAGATCACATTAACTAATTGATTAACTAATTACTTCATCCCGGAGTCACCTAGTGCAG  29600 fluorescence intensity (a.u.)
38. TCTCTTGATTTGTTCGTAATGTGATACTAATAGCAGTTTCCGGAGTCACCTAGTGCAG  31600 fluorescence intensity (a.u.)
39. CTTAATTAATTATACACACAAACATTCCCTCCAATGCATGCGGAGTCACCTAGTGCAG  37600 fluorescence intensity (a.u.)
40. TTTAATTGATTATGTATGATTTCTGGATGATTACTCTTTTCGGAGTCACCTAGTGCAG  43900 fluorescence intensity (a.u.)
41. GATAGATTGAAACATCAAGGACTAAACTGAGCCTTAGGTGCGGAGTCACCTAGTGCAG  45300 fluorescence intensity (a.u.)
42. GAATGATTGTTTGTTGAGAATAATTTGTTCAGTCGATCTGCGGAGTCACCTAGTGCAG  50900 fluorescence intensity (a.u.)
